In PubChem BioAssay AID493208 (National Center for Advancing Translational Sciences (NCATS), 2011):
Screen size: about 44,000 compounds; about 340 (0.77%) were called active. Roughly 5% stayed inconclusive and do not appear here. The call rests on the fitted dose curve; in most records, active means well fitted inhibition curve with a large enough effect; inconclusive means small, poorly fitted or top-dose-only effect; inactive means flat fitted curve, though single readings scatter. This is one part of the list.

test: Acumen qHTS Assay for Inhibitors of the mTORC1 Signaling Pathway in MEF (Tsc2-/-, p53-/-) Cells: Sytravon; conditions: phospho-rpS6 immunofluorescence/PI, 24 h; series mostly up to 38.3 µM; activity change, negative = inhibition: at the top concentration;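 further: plate controls were DMSO for no effect and rapamycin for full effect; nearly all actives have a fitted effect of over 50% in size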
Outline: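 Immunofluorescence of rpS6 phosphorylation in Tsc2-/-, p53-/- MEFs after 24 h compound exposure, normalized to propidium iodide signal. Activity is expressed as % positive cells, thresholded with 7.5 nM rapamycin.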

Structure (SMILES)	activity change, negative = inhibition
CCCN1CCN(CCCNC(=O)c2ccc3c(c2)sc2nc(-c4ccc(C)cc4)cn23)CC1	inactive: 4.57%
Cc1cccc(NCc2nnc3n2CCCCC3)c1C	inactive: 1.77%
CN(C(=O)c1ccc2c(c1)N(Cc1ccccc1F)C(=O)c1ccccc1S2)C1CCCCC1	inactive: -0.433%
CCOC(=O)c1c(C)n(-c2ccccc2)c2ccc(OC(=O)c3ccc(OCC)c(OCC)c3)cc12	inactive: -3.38%
Cc1cccc(-c2noc(-c3ccc(NCC4CCCO4)c([N+](=O)[O-])c3)n2)c1 (stereo not drawn)	inactive: -5.34%
Cc1ccc(-c2nnc(Nc3ccc(Cl)cc3)c3ccccc23)cc1S(=O)(=O)N1CCOCC1	inactive: 21.9%
CN(C)S(=O)(=O)c1ccc2c(c1)N(CC(=O)N1CCCCC1)CCS2	inactive: -0.68%
Cn1cc(S(=O)(=O)c2ccccc2)c(=O)c2cc(F)c(N3CCN(c4ccc(F)cc4)CC3)cc21	inactive: -14.7%
O=C(Nc1c(C(=O)N2CCC(N3CCCCC3)CC2)oc2ccccc12)c1c(F)cccc1F	inactive: -4.06%
COc1ccc(CNC(=O)CCc2nc3cccnc3n2Cc2ccccc2)cc1	inactive: -9.77%
Cc1ccc(Cl)cc1N1CCN(C(=O)c2cn(C)c3ccc(S(=O)(=O)N(C)C4CCCCC4)cc3c2=O)CC1	inactive: -4.31%
Cc1ccc(NC(=O)Cn2c(=O)n(CCC(=O)NCCc3ccccc3)c(=O)c3ccccc32)cc1	inactive: 4.79%
O=C(Cn1cnc(S(=O)(=O)N2CCCC2)c1)Nc1ccccc1	inactive: 1.8%
CC(=O)Nc1ccc(NC(=O)C(Cc2ccccc2)N2Cc3ccccc3C2=O)cc1 (stereo not drawn)	inactive: 7.39%
Cc1cccc(N2CCN(C(=O)c3c(C)oc4nc(C)nc(N5CCCC5)c34)CC2C)c1 (stereo not drawn)	inactive: 7.32%
Cc1ccc(-n2ncc3c(Nc4cccc(C)c4)ncnc32)cc1	inactive: -5.47%
COc1cccc(-n2c(SCC(=O)N3CCCCC3)nc3c([nH]c4ccccc43)c2=O)c1	inactive: -11.4%
Cc1ccc(C)c(CN2C(=O)c3ccccc3Sc3ccc(C(=O)NCc4cccs4)cc32)c1	inactive: 7.2%
CC1CCC(N2CC(=O)N(C3CCCC3)C(c3ccc(Cl)cc3)C2=O)CC1 (stereo not drawn)	inactive: 13.5%
CC(=O)c1cccc(NC(=O)c2noc3c2CSc2ccccc2-3)c1	inactive: -2.08%
COc1ccc(NC(=O)c2c(N)c(C(=O)c3ccc(C)cc3)n3ccccc23)cc1OC	inactive: -2.67%
Cc1cc(C)c2c(-n3cccc3)c(C(=O)NCCCN3CCCCC3)sc2n1	inactive: 0.126%
CCN1CCN(Cc2nc3cc(NC(=O)c4ccccc4[N+](=O)[O-])ccc3n2CC)CC1	inactive: -7.73%
Cc1ccc(C)c(NC(=O)C2CCN(c3nn4c(=O)cc(C)nc4s3)CC2)c1	inactive: 0.527%

Structure (SMILES)	activity change, negative = inhibition
O=C(CCc1ccccc1)NCCc1csc(-c2cccc(F)c2)n1	inactive: -6.91%
Cc1ccccc1OCCSc1nc(C)c(Cc2ccccc2)c(=O)[nH]1	inactive: 3.69%
COc1ccc(-c2nn(C)c3sc(C(=O)N4CCN(c5ccccc5F)CC4)cc23)cc1OC	inactive: -0.184%
COc1cccc(CNC(=O)C(C)n2ccc3cc(S(=O)(=O)N4CCCCCC4)ccc32)c1 (stereo not drawn)	inactive: -2.27%
COc1ccccc1-c1cc(NC(=O)COc2ccccc2Cl)n(-c2ccccc2)n1	inactive: 4.6%
Cc1ccc(-c2[nH]c3ccccc3c2SCCNC(=O)c2ccc(S(=O)(=O)N3CCOCC3)cc2)cc1	inactive: 1.1%
COc1cccc(CNC(=O)CN2C(=O)CSc3ccc(S(=O)(=O)N(C)C)cc32)c1	inactive: 0%
Cc1ccc(-c2nc3sccn3c2Nc2ccccc2C)cc1	inactive: -3.11%
CC1CCN(C(=O)c2cnn(-c3ccc(Cl)cc3)c2C2CCN(C(=O)OC(C)(C)C)CC2)CC1	inactive: 4.3%
Cc1c(C(=O)OC2CCCC2)[nH]c2c1C(=O)CC(c1ccc(C(C)(C)C)cc1)C2 (stereo not drawn)	inactive: 1.92%
Cc1cc2c(cc3c(SCc4ccc(Cl)cc4)nnc(C)n32)o1	inactive: -18.2%
COc1ccc(NC(=O)CSc2oc(-c3ccc(C)cc3)nc2S(=O)(=O)c2ccc(C)cc2)c(OC)c1	inactive: -9.16%
CCC(=O)Oc1c(Sc2ccc(Cl)cc2)c(C)nn1C(C)(C)C	inactive: 7.21%
CCN(CCCNC(=O)c1cc2cc3cc(OC)ccc3nc2s1)c1cccc(C)c1	inactive: -1.7%
Cc1cccc(N2CCN(C(=O)c3nn(C)c4c3CSc3ccccc3-4)CC2C)c1 (stereo not drawn)	inactive: -9.02%
CCc1cccc(NC(=O)CNS(=O)(=O)c2ccc3nc(C)sc3c2)c1	inactive: -9.47%
COc1ccc2c(c1)c1c(c(=O)n(-c3cccc(C)c3)c(=O)n1CC(=O)Nc1c(C)cc(C)cc1C)n2C	inactive: -1.67%
Cc1cc(C)cc(NC(=O)CN2C(=O)COc3ccc(S(=O)(=O)Nc4ccccc4)cc32)c1	inactive: 2.2%
Cc1cn(C)c(CC(=O)NCc2ccc(F)cc2)c1C(=O)O	inactive: -5.63%
CCOC(=O)c1ccccc1NC(=O)CSc1nc2ncccc2o1	inactive: 2.52%
CCN1CCN(Cc2c(O)ccc3oc(C)c(C(=O)Nc4ccc(OC)c(Cl)c4)c23)CC1	inactive: -12.2%
CC1=C(c2ccc(C)cc2)S(=O)(=O)N=C1N1CCN(c2ccccc2)CC1	inactive: -0.417%
CCC(C)NC(=O)c1cn(CC)c2ccc(S(=O)(=O)N3CCCCC3)cc2c1=O (stereo not drawn)	inactive: -5.46%
Cc1ccc(CSC2=Nc3ccccc3C3=NC(CC(=O)NC4CCCCC4)C(=O)N23)c(C)c1 (stereo not drawn)	inactive: 0.833%

Structure (SMILES)	activity change, negative = inhibition
Cc1ccc(NS(=O)(=O)c2ccc3c4c(cccc24)C(=O)N3)c(C)c1	inactive: 2.29%
CCn1cc(C(=O)NCc2ccccc2)c(=O)c2cc(S(=O)(=O)N3CCCCC3)ccc21	inactive: -7.26%
Cc1cc(Nc2cccc(C(F)(F)F)c2)ncn1	inactive: 0.068%
CN(Cc1ccccc1)S(=O)(=O)c1ccc(F)c(C(=O)Nc2ccccc2C(F)(F)F)c1	inactive: 2.37%
Cc1ccc(C(NC(=O)Cc2cccs2)C(=O)Nc2ccc(C(C)C)cc2)cc1 (stereo not drawn)	inactive: -20.1%
Cc1cccc(-c2nc3c4ccccc4nc(NCc4ccccc4Cl)n3n2)c1	inactive: -5.57%
O=C(Nc1ccc(N2CCC(N3CCCCC3)CC2)c(C(=O)O)c1)c1ccccc1	inactive: 0.566%
O=C(COc1ccccc1)N(Cc1cccnc1)c1nc2ccc(Cl)cc2s1	inactive: -6.71%
CNS(=O)(=O)c1cn(CC(=O)N2CCN(c3ccc(OC)cc3)CC2)cc1S(=O)(=O)NC	inactive: -2.35%
COc1ccc(CC(=O)NC2CC(=O)N(c3ccc4c(c3)OCCO4)C2)cc1 (stereo not drawn)	inactive: -1.75%
CC(C)NC(=O)c1ccc(Cn2c(=O)c3cccn3c3cccnc32)cc1	inactive: 0.835%
Nc1c(C(=O)Nc2cccc(Cl)c2)sc2nc3c(cc12)CN(Cc1ccccc1)CC3	inactive: -13.5%
CCOCCCn1c(=N)c(S(=O)(=O)c2ccc(C)cc2)cc2c(=O)n3ccccc3nc21	inactive: 1.63%
CCOC(=O)c1c(NC(=O)C(C)Sc2cn(CCNC(=O)c3ccc(OC)c(OC)c3)c3ccccc23)sc2c1CCC2 (stereo not drawn)	inactive: 4.03%
COc1ccc2nc3sc(C(=O)Nc4cc(Cl)c(OC)cc4OC)cc3cc2c1	inactive: 4.22%
Cc1c(NC(=O)c2cc(-c3cccc(Cl)c3)on2)c(=O)n(-c2ccccc2)n1C	inactive: -14.6%
O=C(CSc1nncn2c1cc1sccc12)Nc1ccccc1C(F)(F)F	inactive: 0%
O=C(NCCC1=CCCCC1)c1ccc2c(c1)N(Cc1ccc(F)cc1)C(=O)c1ccccc1S2(=O)=O	inactive: 1.55%
CCOC(=O)c1c(C)oc2nc(C)nc(NCc3ccc(C)cc3)c12	inactive: -1.95%
CCN1CCN(Cc2c(O)ccc3c(=O)c(Oc4ccccc4Cl)c(C(F)(F)F)oc23)CC1	inactive: -1.58%
COCCCNc1nc2c(-c3ccccc3)nnn2c2ccccc12	inactive: -6.88%
CCOCCCn1c(=N)c(C(=O)NCc2ccco2)cc2c(=O)n3ccccc3nc21	inactive: -1.84%
COC(=O)c1ccccc1NC(=O)c1cc2nc(-c3ccccc3)cc(-c3ccccc3)n2n1	inactive: 4.28%
Cc1cccc(N2CCN(S(=O)(=O)c3ccc4oc(=O)c5ncn(C)c5c4c3)CC2C)c1 (stereo not drawn)	inactive: -1.06%

Structure (SMILES)	activity change, negative = inhibition
COc1ccc(N(C(=O)COc2c(C)cccc2C)S(=O)(=O)c2ccc(Cl)cc2)cc1	inactive: 16%
Cc1ccccc1C(=O)NCC(c1cccnc1)N1CCc2ccccc21 (stereo not drawn)	inactive: -3.17%
COc1ccc(NC(=O)C2(c3cccs3)CCOCC2)cc1Cl	inactive: 3.86%
CCOC(=O)c1c(C)sc(-c2c(-c3ccc4c(c3)OCCO4)[nH]c3c2c(=O)[nH]c(=O)n3C)c1O	inactive: -29.4%
COc1cccc(N2CCN(C(=O)c3c(C)oc4ncnc(N5CCCCC5)c34)CC2)c1	inactive: -26.7%
Cc1ccc(-c2nnc(Nc3ccc(O)cc3)c3ccccc23)cc1S(=O)(=O)NCc1nc2ccccc2[nH]1	inactive: -0.196%
COc1ccc(N2CC3=C(C2=O)C(c2ccc(Br)cc2)NC(=O)N3C)cc1 (stereo not drawn)	inactive: 9.29%
Cc1cc(Nc2sc(C(=O)c3ccc(F)cc3)c(N)c2C(=O)Nc2ccc(F)cc2)ccc1Cl	inactive: -11.2%
Cc1ccc(Cl)cc1N1CCN(CCCNc2ncnc3onc(-c4ccc(F)cc4)c23)CC1	inactive: -1.2%
O=C1CC(=O)Nc2cc(S(=O)(=O)N3CCOc4ccccc43)ccc2N1	inactive: -0.844%
CC(C)CN(CCCNC(=O)CN1C(=O)COc2ccc(S(=O)(=O)N3CCCCCC3)cc21)CC(C)C	inactive: -21.3%
COc1cc(NC(=O)CSc2nc(C)c(C(=O)Nc3ccccc3)c(-c3ccc(OC)c(OC)c3)c2C#N)c(OC)cc1Cl	inactive: -9.28%
Cc1cc(C)n(-c2nc3cc(Cl)ccc3nc2Nc2ccc(CC(=O)O)cc2)n1	inactive: 0.874%
COc1ccc2nc(NC(=O)c3nc(SCc4ccccc4F)ncc3Cl)sc2c1	inactive: 2.3%
COc1ccccc1CNC(=O)C1CCN(S(=O)(=O)c2ccc3c(ccn3C)c2)CC1	inactive: -4.61%
CCCCn1c(NCc2cc(Br)ccc2O)nc2ccccc21	inactive: 1.97%
COC(=O)c1c(-c2cccs2)csc1NC(=O)c1ccc(OC)c(OC)c1	inactive: -10.9%
CCNC(=O)C1CCN(c2nnc(C)c3c(C)n(-c4ccc(OC)cc4)nc23)CC1	inactive: -3.15%
Cc1ccc2c(c1)NC(=O)c1cccnc1O2	inactive: -1.5%
Cc1ccc(-c2nc(CS(=O)(=O)CC(=O)NCCc3ccccc3)c(C)o2)cc1	inactive: 1.18%
COc1ccc(S(=O)(=O)c2c(SC)nn(CC(=O)Nc3cccc(C)c3C)c2N)cc1	inactive: 5.29%
